This is an account of results in paper PMC12820563, “FoxP3 forms a head-to-head dimer in vivo and stabilizes its multimerization on adjacent microsatellites”.

Some of the results follow.

The experiment addresses T1, MBP-FoxP1dN (Mus musculus, UniProt P58462 326-579).
T1 sequence: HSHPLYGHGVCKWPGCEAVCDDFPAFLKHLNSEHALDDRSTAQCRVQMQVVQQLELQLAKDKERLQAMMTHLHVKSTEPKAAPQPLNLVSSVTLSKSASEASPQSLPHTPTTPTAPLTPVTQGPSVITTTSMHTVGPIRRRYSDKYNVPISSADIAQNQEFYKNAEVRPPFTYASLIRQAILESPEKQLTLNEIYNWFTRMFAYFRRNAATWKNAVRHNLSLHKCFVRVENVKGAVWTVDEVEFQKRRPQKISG
Nature of the experiment: PD-seq (MBP pull-down with sequencing); 20 mM Tris-HCl pH 7.5, 100 mM NaCl, 1.5 mM MgCl2, 0.4 uM protein, 0.1 uM dsDNA library, 30 min, room temperature, amylose pull-down; high values mean tight binding. The settings on record: protein: recombinant; tags: His6-MBP; chain copies: 2; dsDNA, one strand shown. An outline of the steps: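 Mouse FoxP3 or FoxP1 fragment lacking the N-terminus, His6-MBP-tagged and expressed in E. coli, was incubated at 0.4 µM with 0.1 µM Klenow-filled degenerate double-stranded DNA library for 30 min at room temperature in Tris pH 7.5 buffer with NaCl and MgCl2. Complexes captured on amylose resin were washed three times and their DNA sequenced on Illumina. Binding is reads-per-million enrichment of pull-down over input, replicates pooled.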
Take “GATGATTGTTCTCCCAGCTGATGAATTCATAGAATCGAGTAAACAAATTTTCCTAATCTTTCTGTTCAAGCGCCATCTAC”: the binding signal was 0.955 RPM ratio (pull-down/input).

For “GATGATTGTTCTCCCAGCTGATGAATTACATCAGTCGAGTAAACAAATTTTCCTAATCTTTCTGTTCAAGCGCCATCTAC”, the binding signal is 1.17 RPM ratio (pull-down/input).

As for “GATGATTGTTCTCCCAGCTGATGAATTTCGATGATCGAGTAAACAAATTTTCCTAATCTTTCTGTTCAAGCGCCATCTAC”, the binding signal is 0.907 RPM ratio (pull-down/input).

Turning to “GATGATTGTTCTCCCAGCTGATGAATTTAGTTGTTCGAGTAAACAAATTTTCCTAATCTTTCTGTTCAAGCGCCATCTAC”, the binding signal was 1.71 RPM ratio (pull-down/input).

As for “GATGATTGTTCTCCCAGCTGATGAATTTAACCATTCGAGTAAACAAATTTTCCTAATCTTTCTGTTCAAGCGCCATCTAC”, the binding signal was 0.939 RPM ratio (pull-down/input).

In the case of “GATGATTGTTCTCCCAGCTGATGAATTAATGACTTCGAGTAAACAAATTTTCCTAATCTTTCTGTTCAAGCGCCATCTAC”, the binding signal is 0.904 RPM ratio (pull-down/input).

Consider “GATGATTGTTCTCCCAGCTGATGAATTCGAAAGATCGAGTAAACAAATTTTCCTAATCTTTCTGTTCAAGCGCCATCTAC”, for which the binding signal was 0.94 RPM ratio (pull-down/input).

Take “GATGATTGTTCTCCCAGCTGATGAATTACTTTCATCGAGTAAACAAATTTTCCTAATCTTTCTGTTCAAGCGCCATCTAC”: the binding signal was 1.02 RPM ratio (pull-down/input).

For the sequence “GATGATTGTTCTCCCAGCTGATGAATTATTGACATCGAGTAAACAAATTTTCCTAATCTTTCTGTTCAAGCGCCATCTAC”, the binding signal is 2 RPM ratio (pull-down/input).

On to “GATGATTGTTCTCCCAGCTGATGAATTACGATTATCGAGTAAACAAATTTTCCTAATCTTTCTGTTCAAGCGCCATCTAC”, for which the binding signal is 1.22 RPM ratio (pull-down/input).

As for “GATGATTGTTCTCCCAGCTGATGAATTTGATGTTTCGAGTAAACAAATTTTCCTAATCTTTCTGTTCAAGCGCCATCTAC”, the binding signal is 1.16 RPM ratio (pull-down/input).

“GATGATTGTTCTCCCAGCTGATGAATTTCACTTTTCGAGTAAACAAATTTTCCTAATCTTTCTGTTCAAGCGCCATCTAC”: the binding signal is 0.926 RPM ratio (pull-down/input).

With “GATGATTGTTCTCCCAGCTGATGAATTTTCAACTTCGAGTAAACAAATTTTCCTAATCTTTCTGTTCAAGCGCCATCTAC”, the binding signal was 0.943 RPM ratio (pull-down/input).

With “GATGATTGTTCTCCCAGCTGATGAATTCGAAGGTTCGAGTAAACAAATTTTCCTAATCTTTCTGTTCAAGCGCCATCTAC”, the binding signal is 0.81 RPM ratio (pull-down/input).

On to “GATGATTGTTCTCCCAGCTGATGAATTGCTTGGCTCGAGTAAACAAATTTTCCTAATCTTTCTGTTCAAGCGCCATCTAC”, for which the binding signal was 0.933 RPM ratio (pull-down/input).

“GATGATTGTTCTCCCAGCTGATGAATTGTTCGACTCGAGTAAACAAATTTTCCTAATCTTTCTGTTCAAGCGCCATCTAC”: the binding signal was 1.01 RPM ratio (pull-down/input).

With “GATGATTGTTCTCCCAGCTGATGAATTCCAGCAGTCGAGTAAACAAATTTTCCTAATCTTTCTGTTCAAGCGCCATCTAC”, the binding signal is 0.739 RPM ratio (pull-down/input).

Regarding “GATGATTGTTCTCCCAGCTGATGAATTGCCGGGGTCGAGTAAACAAATTTTCCTAATCTTTCTGTTCAAGCGCCATCTAC”, the binding signal is 0.827 RPM ratio (pull-down/input).

Consider “GATGATTGTTCTCCCAGCTGATGAATTTGGACAGTCGAGTAAACAAATTTTCCTAATCTTTCTGTTCAAGCGCCATCTAC”, for which the binding signal is 0.81 RPM ratio (pull-down/input).

“GATGATTGTTCTCCCAGCTGATGAATTCGGATCTTCGAGTAAACAAATTTTCCTAATCTTTCTGTTCAAGCGCCATCTAC”: the binding signal is 0.788 RPM ratio (pull-down/input).

Regarding “GATGATTGTTCTCCCAGCTGATGAATTGATTCCCTCGAGTAAACAAATTTTCCTAATCTTTCTGTTCAAGCGCCATCTAC”, the binding signal is 0.993 RPM ratio (pull-down/input).

Take “GATGATTGTTCTCCCAGCTGATGAATTCTAACAGTCGAGTAAACAAATTTTCCTAATCTTTCTGTTCAAGCGCCATCTAC”: the binding signal is 0.932 RPM ratio (pull-down/input).

With “GATGATTGTTCTCCCAGCTGATGAATTAGTCCGGTCGAGTAAACAAATTTTCCTAATCTTTCTGTTCAAGCGCCATCTAC”, the binding signal was 0.847 RPM ratio (pull-down/input).

“GATGATTGTTCTCCCAGCTGATGAATTCTACCGGTCGAGTAAACAAATTTTCCTAATCTTTCTGTTCAAGCGCCATCTAC”: the binding signal is 0.708 RPM ratio (pull-down/input).

For “GATGATTGTTCTCCCAGCTGATGAATTCAGTTAATCGAGTAAACAAATTTTCCTAATCTTTCTGTTCAAGCGCCATCTAC”, the binding signal was 1.06 RPM ratio (pull-down/input).

With “GATGATTGTTCTCCCAGCTGATGAATTCAATTAATCGAGTAAACAAATTTTCCTAATCTTTCTGTTCAAGCGCCATCTAC”, the binding signal is 1.06 RPM ratio (pull-down/input).

In the case of “GATGATTGTTCTCCCAGCTGATGAATTTTCTTTGTCGAGTAAACAAATTTTCCTAATCTTTCTGTTCAAGCGCCATCTAC”, the binding signal is 1.11 RPM ratio (pull-down/input).

As to “GATGATTGTTCTCCCAGCTGATGAATTCTTCCGGTCGAGTAAACAAATTTTCCTAATCTTTCTGTTCAAGCGCCATCTAC”, the binding signal is 0.868 RPM ratio (pull-down/input).

For “GATGATTGTTCTCCCAGCTGATGAATTACATTGGTCGAGTAAACAAATTTTCCTAATCTTTCTGTTCAAGCGCCATCTAC”, the binding signal is 1.06 RPM ratio (pull-down/input).

Regarding “GATGATTGTTCTCCCAGCTGATGAATTGTTACCTTCGAGTAAACAAATTTTCCTAATCTTTCTGTTCAAGCGCCATCTAC”, the binding signal was 1.25 RPM ratio (pull-down/input).

For “GATGATTGTTCTCCCAGCTGATGAATTATAAATCTCGAGTAAACAAATTTTCCTAATCTTTCTGTTCAAGCGCCATCTAC”, the binding signal was 1.11 RPM ratio (pull-down/input).
